Assay results published in paper PMC9911399, “Two distinct binding modes provide the RNA-binding protein RbFox with extraordinary sequence specificity”.
Numbering of substitutions follows the chain as printed; changes in the protein carry UniProt numbers. Some of the results follow.

T1: RBFOX1 RRM (Homo sapiens, UniProt Q9NWB1 109-208)
T1 sequence: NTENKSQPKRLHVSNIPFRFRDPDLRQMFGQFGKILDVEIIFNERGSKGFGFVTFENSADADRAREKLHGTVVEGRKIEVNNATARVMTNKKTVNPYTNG

B1: CGAGAGA (DNA:RNA)
RNA: GGGAGACCGGAAUUCAGAUUGUCCCGAGAGAUUAAAUCCCGUCGUAGCCACCA
DNA 1: CAATCTGAATTCCGGTCTCCC
DNA 2: TGGTGGCTACGACGGGATT
B2: GGAAGUC (DNA:RNA)
RNA: B1 RNA with C25G, G28A, A29G, G30U, A31C
DNA 1: CAATCTGAATTCCGGTCTCCC
DNA 2: TGGTGGCTACGACGGGATT
B3: UGGCAAU (DNA:RNA)
RNA: B1 RNA with C25U, A27G, G28C, G30A, A31U
DNA 1: CAATCTGAATTCCGGTCTCCC
DNA 2: TGGTGGCTACGACGGGATT
B4: AGUCCAC (DNA:RNA)
RNA: B1 RNA with C25A, A27U, G28C, A29C, G30A, A31C
DNA 1: CAATCTGAATTCCGGTCTCCC
DNA 2: TGGTGGCTACGACGGGATT
B5: UAGGAAC (DNA:RNA)
RNA: B1 RNA with C25U, G26A, A27G, G30A, A31C
DNA 1: CAATCTGAATTCCGGTCTCCC
DNA 2: TGGTGGCTACGACGGGATT
B6: UUUAACU (DNA:RNA)
RNA: B1 RNA with C25U, G26U, A27U, G28A, G30C, A31U
DNA 1: CAATCTGAATTCCGGTCTCCC
DNA 2: TGGTGGCTACGACGGGATT
B7: ACUCAUA (DNA:RNA)
RNA: B1 RNA with C25A, G26C, A27U, G28C, G30U
DNA 1: CAATCTGAATTCCGGTCTCCC
DNA 2: TGGTGGCTACGACGGGATT
B8: CUCAAAG (DNA:RNA)
RNA: B1 RNA with G26U, A27C, G28A, G30A, A31G
DNA 1: CAATCTGAATTCCGGTCTCCC
DNA 2: TGGTGGCTACGACGGGATT
B9: UAACAUU (DNA:RNA)
RNA: B1 RNA with C25U, G26A, G28C, G30U, A31U
DNA 1: CAATCTGAATTCCGGTCTCCC
DNA 2: TGGTGGCTACGACGGGATT
B10: GAAGGUU (DNA:RNA)
RNA: B1 RNA with C25G, G26A, A29G, G30U, A31U
DNA 1: CAATCTGAATTCCGGTCTCCC
DNA 2: TGGTGGCTACGACGGGATT
B11: UUGACUA (DNA:RNA)
RNA: B1 RNA with C25U, G26U, A27G, G28A, A29C, G30U
DNA 1: CAATCTGAATTCCGGTCTCCC
DNA 2: TGGTGGCTACGACGGGATT
B12: GCAAAAU (DNA:RNA)
RNA: B1 RNA with C25G, G26C, G28A, G30A, A31U
DNA 1: CAATCTGAATTCCGGTCTCCC
DNA 2: TGGTGGCTACGACGGGATT
B13: CGGAUGA (DNA:RNA)
RNA: B1 RNA with A27G, G28A, A29U
DNA 1: CAATCTGAATTCCGGTCTCCC
DNA 2: TGGTGGCTACGACGGGATT
B14: GCGAACG (DNA:RNA)
RNA: B1 RNA with C25G, G26C, A27G, G28A, G30C, A31G
DNA 1: CAATCTGAATTCCGGTCTCCC
DNA 2: TGGTGGCTACGACGGGATT
B15: ACGUGGU (DNA:RNA)
RNA: B1 RNA with C25A, G26C, A27G, G28U, A29G, A31U
DNA 1: CAATCTGAATTCCGGTCTCCC
DNA 2: TGGTGGCTACGACGGGATT
B16: UCCUUCU (DNA:RNA)
RNA: GGGAGACCGGAAUUCAGAUUGUCCUCCUUCUUUAAAUCCCGUCGUAGCCACCA
DNA 1: CAATCTGAATTCCGGTCTCCC
DNA 2: TGGTGGCTACGACGGGATT
B17: CAUGAAU (DNA:RNA)
RNA: B1 RNA with G26A, A27U, G30A, A31U
DNA 1: CAATCTGAATTCCGGTCTCCC
DNA 2: TGGTGGCTACGACGGGATT
B18: UGCACCA (DNA:RNA)
RNA: B16 RNA with C26G, U28A, U29C, U31A
DNA 1: CAATCTGAATTCCGGTCTCCC
DNA 2: TGGTGGCTACGACGGGATT
B19: UGAACGU (DNA:RNA)
RNA: B1 RNA with C25U, G28A, A29C, A31U
DNA 1: CAATCTGAATTCCGGTCTCCC
DNA 2: TGGTGGCTACGACGGGATT
B20: CACAACA (DNA:RNA)
RNA: B1 RNA with G26A, A27C, G28A, G30C
DNA 1: CAATCTGAATTCCGGTCTCCC
DNA 2: TGGTGGCTACGACGGGATT

biological target: T1, RBFOX1 RRM; test: EMSA; HiTS-Eq, 1 nM pool, 10 min; buffer printed only for the single-RNA assays: 10 mM Tris pH 7.5, 150 mM NaCl, 3.4 mM EDTA, 0.001% NP-40, 30 C; conditions: tags: His6 N-terminal (pET28a); label: 5' 32P
In short: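 These values rest on relative association constants, computed from read-count changes of each RNA species versus the control reaction and normalised to the cognate motif. Reads came from free RNA recovered by 8% native PAGE after purified RbFox RRM (wild type or mutant) at increasing concentrations was equilibrated for 10 min in 50 µL with 1 nM of a 5′-radiolabelled pool with 7 randomized nucleotides and DNA-annealed flanks.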

| Binder | binding signal |
| --- | --- |
| B1 | 0.0113 KA relative to UGCAUGU |
| B2 | 0.0165 KA relative to UGCAUGU |
| B3 | 0.0132 KA relative to UGCAUGU |
| B4 | 0.000683 KA relative to UGCAUGU |
| B5 | 0.00731 KA relative to UGCAUGU |
| B6 | 0.00774 KA relative to UGCAUGU |
| B7 | 0.00097 KA relative to UGCAUGU |
| B8 | 0.00164 KA relative to UGCAUGU |
| B9 | 0.00574 KA relative to UGCAUGU |
| B10 | 0.0161 KA relative to UGCAUGU |
| B11 | 0.00893 KA relative to UGCAUGU |
| B12 | 0.00418 KA relative to UGCAUGU |
| B13 | 0.0221 KA relative to UGCAUGU |
| B14 | 0.0184 KA relative to UGCAUGU |
| B15 | 0.0152 KA relative to UGCAUGU |
| B16 | 0.0106 KA relative to UGCAUGU |
| B17 | 0.00546 KA relative to UGCAUGU |
| B18 | 0.00925 KA relative to UGCAUGU |
| B19 | 0.0222 KA relative to UGCAUGU |
| B20 | 0.00114 KA relative to UGCAUGU |
